The whole screen tested about 310,000 compounds, of which about 2,200 (0.71%) showed an effect of 50% or more. The effect is printed as a negative number. The list shows a part of the results.
biological target: human ether-à-go-go-related gene (hERG) potassium channel (human, UniProt Q12809); test: primary screen, population patch clamp on CHO cells stably expressing hERG
Sequence (Q12809 whole entry, looked up): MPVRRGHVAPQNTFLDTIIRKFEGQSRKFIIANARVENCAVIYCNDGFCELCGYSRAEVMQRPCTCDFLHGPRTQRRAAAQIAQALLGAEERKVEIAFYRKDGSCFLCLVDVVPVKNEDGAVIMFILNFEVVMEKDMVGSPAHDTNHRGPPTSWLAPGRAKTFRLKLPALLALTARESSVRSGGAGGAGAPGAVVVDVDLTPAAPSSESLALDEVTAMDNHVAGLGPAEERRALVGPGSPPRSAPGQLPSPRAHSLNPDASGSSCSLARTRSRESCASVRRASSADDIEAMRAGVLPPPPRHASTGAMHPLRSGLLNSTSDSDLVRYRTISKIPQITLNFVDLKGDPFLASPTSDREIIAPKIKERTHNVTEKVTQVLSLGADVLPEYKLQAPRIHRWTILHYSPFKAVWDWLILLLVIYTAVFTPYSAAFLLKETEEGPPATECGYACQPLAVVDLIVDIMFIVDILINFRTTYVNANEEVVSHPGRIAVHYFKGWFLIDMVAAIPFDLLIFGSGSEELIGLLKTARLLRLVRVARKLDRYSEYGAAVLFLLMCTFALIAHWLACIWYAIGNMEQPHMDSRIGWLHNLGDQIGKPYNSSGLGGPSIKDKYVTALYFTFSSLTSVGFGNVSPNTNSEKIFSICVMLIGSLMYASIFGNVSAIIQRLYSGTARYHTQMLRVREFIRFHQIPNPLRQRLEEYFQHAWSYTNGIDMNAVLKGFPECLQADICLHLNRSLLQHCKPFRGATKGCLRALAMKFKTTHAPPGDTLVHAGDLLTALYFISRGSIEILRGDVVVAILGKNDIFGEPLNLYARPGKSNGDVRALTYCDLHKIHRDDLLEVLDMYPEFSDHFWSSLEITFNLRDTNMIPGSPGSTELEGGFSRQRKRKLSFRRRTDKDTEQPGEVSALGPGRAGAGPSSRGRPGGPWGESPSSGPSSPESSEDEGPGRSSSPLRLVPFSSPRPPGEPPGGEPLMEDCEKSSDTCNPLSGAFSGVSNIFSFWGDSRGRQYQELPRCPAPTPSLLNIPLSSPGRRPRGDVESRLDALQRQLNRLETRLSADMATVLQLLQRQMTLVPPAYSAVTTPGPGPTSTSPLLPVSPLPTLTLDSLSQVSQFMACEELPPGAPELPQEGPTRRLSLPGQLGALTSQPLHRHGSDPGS

SMILES | hERG current change (%, negative = inhibition) at 1uM [%]
CC(C)Cc1nc(SCC(=O)N2CCCC2)c2c(=O)n(C)c(=O)n(C)c2n1 | 4.33
CSc1ncccc1C(=O)OCC(=O)c1cc2ccccc2o1 | 9.85
O=C(Cn1ccc(NC(=O)OCc2ccccc2)nc1=O)NCCc1ccccn1 | 9.78
COC(=O)c1nnn(-c2nonc2N)c1CSc1nnc(C)s1 | 5.18
Cc1nn(CC(=O)NCCN2CCOCC2)c(=O)c2ccccc12 | 22.4
CC(C)Cn1c(-c2csc3c2CCCC3)n[nH]c1=S | 7.94
O=C(Nn1cc(C(=O)N2CCN(c3ccccc3F)CC2)c2ccccc2c1=O)c1cnccn1 | 6.91
CN(C)S(=O)(=O)c1cccc(NC(=O)c2ccc(OC(F)(F)F)cc2)c1 | -8.11
COC(=O)[C@@]1(Cc2ccc(F)cc2)[C@H]2c3cc(C(=O)N4CCCC4)n(CCc4ccc(O)c(O)c4)c3C[C@H]2CN1C(=O)c1ccccc1 | 3.19
COc1ccc(NC(=O)c2c(Cl)n(C)c3ccccc23)cc1 | 10.2
O=C(C1CCN(S(=O)(=O)Cc2ccccc2)CC1)N1CCN(c2ncccn2)CC1 | 7.38
Cc1noc(NC(=O)c2ccccc2C(F)(F)F)c1C#N | -8.8
Cc1c(-c2ccnc3cc(C(=O)O)nn23)cnn1C | 8.16
Cc1onc(-c2ccccc2)c1C(=O)N/N=C/c1ccc([N+](=O)[O-])c(O)c1 | 7.51
S=c1[nH]nc(-c2ccncc2)n1Cc1ccco1 | 14.1
O=c1cc(-c2ccc(O)c(O)c2)oc2c1ccc1ccccc12 | 12.5
Cc1cc(O)ccc1Nc1nc(-c2cccs2)cs1 | 5.07
Cc1cnc2c(C(=O)O)cnn2c1 | 14.7
CC(C)CC(=O)N1CCC(O)(CS(=O)(=O)c2ccc(Cl)c(Cl)c2)CC1 | 2.83
O=S(=O)(c1cccc(-c2n[nH]c(=S)o2)c1)N1CCOCC1 | 13.7
COCCCNC(=O)Cn1ncc2ccsc2c1=O | 11.1
CC1CCCCN1C(=O)Nc1ccccc1Cl (stereo not drawn) | 4.9
CCN1C(=O)[C@@H]2[C@@H](c3ccc(-c4ccc5c(c4)OCO5)c(OC)c3)N3CCC[C@@]3(C(=O)OC)[C@@H]2C1=O.O=C(O)C(F)(F)F | -5.04
Cl.O=C(NC1=NCCS1)c1cc(-c2cccnc2)nc2ccccc12 | 6.83
COc1cc2c(c(OC)c1OC)-c1ccc(N(C)CC(OC)OC)c(=O)cc1[C@@H](NC(C)=O)CC2 | 13.1
O=C(OC1CCOC1=O)c1ccc(Cl)c(S(=O)(=O)N2CCOCC2)c1 (stereo not drawn) | 4.1
COc1ccccc1N1CCN(S(=O)(=O)c2ccc(-c3ccc(=O)[nH]n3)o2)CC1 | 11.5

SMILES | hERG current change (%, negative = inhibition) at 1uM [%]
Cc1ccnc(SCC(=O)c2cc3ccccc3o2)n1 | -0.772
O=C(NCC(=O)N(Cc1ccccc1)C(C(=O)NCC1CCCO1)c1ccccc1)c1cccs1 (stereo not drawn) | 10.7
Cn1c(=O)c2c(nc(N/N=C/c3cccs3)n2Cc2ccc(Br)cc2)n(C)c1=O | 5.98
COC(=O)C1=C(c2ccc(F)cc2OCc2ccccc2)C[C@@H]2CC[C@H]1N2C(=O)NCc1ccccc1OC | 10.8
O=C(c1ccc2c(c1)OCO2)C1CCCN(Cc2cccn2-c2cccnc2)C1 (stereo not drawn) | -14.6
CCCOc1ccc(C2NC(=S)NC(c3ccccc3)=C2C(=O)Nc2ccc(C)cc2)cc1OC (stereo not drawn) | 11.1
Cl.c1ccc2c(CN3CCCCCC3)c[nH]c2c1 | -1.63
Cn1c(=O)c2c(ncn2CC(=O)N2CCN(c3cccc(Cl)c3)CC2)n(C)c1=O | -43.9
O=S(=O)(c1ccc(F)cc1)N1CCN(Cc2nnc(-c3ccccc3)o2)CC1 | -5
Cc1ccc(OCC(=O)NNC(=O)c2cc(C)[nH]n2)cc1 | 17.2
Cc1cc2cc(CCNC(=O)c3ccc(S(=O)(=O)N4CCCC4)cc3)c(=O)[nH]c2cc1C | 2.54
NS(=O)(=O)c1cccc(NC(=O)c2cccc3c(Br)cccc23)c1 | 25.3
Cc1ccc2nc(C)c(Cl)c(=O)n2c1 | 10.3
O=C(CCCc1ccccc1)NCc1ccc(F)cc1 | 5.77
O=C(Nc1ccc(N2CCN(C(=O)c3ccccc3)CC2)c(Cl)c1)c1ncn[nH]1 | 2.09
COCCNC(=O)c1cc2c3ccccc3n(C)c2s1 | 14.2
CCOc1ccc(-n2c(C)nnc2SCC(=O)N(CC)CC)cc1 | 7.32
O=C(O)CSc1ncnc2sc(-c3ccccc3)cc12 | 4.07
CCOc1ccc(-c2csc(N)c2C(=O)OC)cc1 | 11.4
CC(C)CCN1CCN(Cc2nc3ccccc3s2)CC1CCO (stereo not drawn) | -8.09
CCC(=O)N1CCN(c2ccc(NC(=O)c3c(F)c(F)c(OC)c(F)c3F)cc2)CC1 | 2.37
O=C(c1ccc2c(c1)OCO2)C1CCCN(Cc2cccc(C(F)(F)F)c2)C1 (stereo not drawn) | -0.222
CN(C(=O)C1CCCN(S(=O)(=O)c2cccc([N+](=O)[O-])c2)C1)C1CCS(=O)(=O)C1 (stereo not drawn) | 5.6
COc1ccc(C2C3=C(CC(C)(C)CC3=O)N(CCN3CCOCC3)C3=C2C(=O)CC(C)(C)C3)cc1 | 7.6
CCC(C)(C)NC(=O)C(c1ccncc1)N(C(=O)Cn1nnc2ccccc21)c1cc2c(cc1C(C)=O)OCO2 (stereo not drawn) | 3.8
CCOCCCn1c(SCC(=O)Nc2cc(OC)ccc2OC)nc2ccccc2c1=O | -13.7
C=CCN1C(=O)c2ccc(C(=O)N3CCN(S(=O)(=O)c4cccc(F)c4)CC3)cc2C1=O | 13.7

Reference: publication PMC4336329 (PLoS ONE, 2015)
